Our source for the enrichment ratio values is a collection of fitness landscapes (doi:10.1126/science.1257360).

Some of the results follow. Bounds are passed on as bounds.

Sequences and labels used below:
B1: PhoQ; a variant is named by its letters at X, in order, P23837 (parent)
chain: MKKLLRLFFPLSLRVRFLLATAAVVLVLSLAYGMVALIGYSVSFDKTTFRLLRGESNLFYTLAKWENNKLHVELPENIDKQSPTMTLIYDENGQLLWAQRDVPWLMKMIQPDWLKSNGFHEIEADVNDTSLLLSGDHSIQQQLQEVREDDDDAEMTHSVAVNVYPATSRMPKLTIVVVDTIPVELKSSYMVWSWFIYVLSANLLLVIPLLWVAAWWSLRPIEALAKEVRELEEHNRELLNPATTRELTSLVRNLNRLLKSERERYDKYRTTLTDLTHSLKTPLXXLQXXLRSLRSEKMSVSDAEPVMLEQISRISQQIGYYLHRASMRGGTLLSRELHPVAPLLDNLTSALNKVYQRKGVNISLDISPEISFVGEQNDFVEVMGNVLDNACKYCLEFVEISARQTDEHLYIVVEDDGPGIPLSKREVIFDRGQRVDTLRPGQGVGLAVAREITEQYEGKIVAGESMLGGARMEVIFGRQHSAPKDE

The experiment covers variants of B1. Briefly: enrichment ratio after two sorts for PhoP signalling (ratio (wild type AVST 3.29)); higher = more functional. The conditions noted are these: with PhoP (E. coli).
For DFEQ, the enrichment ratio was at most 0.25.
Then SAPT, with at most 0.25; and IMAV, with at most 0.25; and ACLH, with 5.86.
On to NNCD, for which the enrichment ratio was at most 0.25.
Then HTDY, with at most 0.25.
Then GSMR, with at most 0.25; and SKII, with 7.85.
Then QHQR, with at most 0.25; and NYDH, with at most 0.25.
Consider LEMH, for which the enrichment ratio was at most 0.25.
Then AIGR, with 0.485; and PYHF, with at most 0.25.
Then NPNT, with at most 0.25; and SCSQ, with 7.71.
Then YHWF, with at most 0.25; and NDFS, with at most 0.25.
Consider WPFI, for which the enrichment ratio was at most 0.25.
Consider EPFF, for which the enrichment ratio was at most 0.25.
Then CSFY, with at most 0.25.
Then GRNY, with at most 0.25; and TKRP, with at most 0.25.
Then DTNF, with at most 0.25.
Take NQFT: the enrichment ratio was at most 0.25.
Then PPQT, with at most 0.25; and LIIH, with at most 0.25.
Turning to DCPR, the enrichment ratio is at most 0.25.
Then AAQP, with at most 0.25; and ETFD, with at most 0.25; and RAPP, with at most 0.25.
Then GLYA, with at most 0.25.
Regarding MMLW, the enrichment ratio was at most 0.25.
For HPKA, the enrichment ratio was at most 0.25.
Then DQMF, with at most 0.25; and SSHP, with at most 0.25.
Then INLL, with 3.45; and IFHA, with at most 0.25; and QFGY, with at most 0.25.
For MPNP, the enrichment ratio is at most 0.25.
With RRMA, the enrichment ratio was at most 0.25.
Then WCRE, with at most 0.25.
Consider IKEM, for which the enrichment ratio was at most 0.25.
With KTEN, the enrichment ratio is at most 0.25.
Then YRCN, with at most 0.25; and FWAR, with at most 0.25.
Consider LTDD, for which the enrichment ratio was at most 0.25.
As for KHGK, the enrichment ratio was at most 0.25.
Then YLVY, with at most 0.25.
Then IIVE, with at most 0.25; and VSPR, with at most 0.25; and GMMH, with at most 0.25.
Then SLVM, with 2.29; and NKGW, with at most 0.25; and GFTD, with at most 0.25.
With VQQK, the enrichment ratio was at most 0.25.
Then FYNE, with at most 0.25.
Then RGGT, with at most 0.25.
Then PYCT, with at most 0.25; and LDPK, with at most 0.25.
NRCY: the enrichment ratio was at most 0.25.
For SFCM, the enrichment ratio turned out to be 2.09.
Then QGDY, with 7.92.
Then FQHK, with at most 0.25; and ISPW, with at most 0.25.
Then PTHL, with at most 0.25.
Regarding IRGS, the enrichment ratio was at most 0.25.
Then YFWY, with at most 0.25; and LGLH, with at most 0.25.
Regarding IHCI, the enrichment ratio was at most 0.25.
For VESK, the enrichment ratio is at most 0.25.
As for KPQP, the enrichment ratio is at most 0.25.
For the variant DESG, the enrichment ratio is at most 0.25.
Then TVVD, with at most 0.25; and RRFP, with at most 0.25.
For the variant HDCE, the enrichment ratio was at most 0.25.
Then TRAA, with at most 0.25; and RCVI, with at most 0.25.
Then PWHF, with at most 0.25.
Then FTGC, with at most 0.25.
For ERNF, the enrichment ratio is at most 0.25.
Then YVHS, with at most 0.25; and GVFL, with at most 0.25; and TDPY, with at most 0.25.
Then NSVW, with at most 0.25; and MWYL, with at most 0.25.
Then NALK, with at most 0.25.
Take NETD: the enrichment ratio was at most 0.25.
Then SWWE, with at most 0.25; and KAGS, with at most 0.25.
Then NGTL, with at most 0.25.
Then REHR, with at most 0.25.
With GWLI, the enrichment ratio was at most 0.25.
Then GWVC, with at most 0.25; and YTIW, with at most 0.25.
Then KINQ, with at most 0.25; and ALYL, with at most 0.25.
Then YFEI, with at most 0.25; and RNTT, with at most 0.25.
Turning to LWNN, the enrichment ratio is at most 0.25.
Then LGNL, with at most 0.25.
Turning to QKDM, the enrichment ratio was at most 0.25.
As for QPVV, the enrichment ratio is at most 0.25.
Then HIIF, with at most 0.25.
Consider LKLN, for which the enrichment ratio is at most 0.25.
Then HGWL, with at most 0.25.
Then QRPR, with at most 0.25.
Then LFAA, with at most 0.25; and VPDN, with at most 0.25.
AEHP: the enrichment ratio is at most 0.25.
With RPWW, the enrichment ratio is at most 0.25.
Then LQMC, with at most 0.25.
With GACI, the enrichment ratio was at most 0.25.
As to SGQR, the enrichment ratio is at most 0.25.
Then KVEW, with at most 0.25.
Then GCPL, with at most 0.25; and DEMQ, with at most 0.25; and ITNG, with at most 0.25.
Then MFWA, with at most 0.25; and NIML, with 6.63; and QMID, with at most 0.25.
As for MDPN, the enrichment ratio was at most 0.25.
Then QQAS, with at most 0.25; and NFLP, with at most 0.25; and MSIE, with at most 0.25.
AQSS: the enrichment ratio is 11.7.
Then DHHK, with at most 0.25; and WKVH, with at most 0.25.
Then GDCK, with at most 0.25.
Turning to SLGF, the enrichment ratio was determined as 10.1.
Then QSKL, with at most 0.25.
Regarding LHRS, the enrichment ratio is at most 0.25.
Then WEMF, with at most 0.25; and VDME, with at most 0.25.
Then GLYK, with at most 0.25; and VYLG, with at most 0.25; and LKNM, with at most 0.25.
Then EHVK, with at most 0.25; and VDNW, with at most 0.25.
For QTIK, the enrichment ratio was at most 0.25.
With VLSH, the enrichment ratio is at most 0.25.
With NMQV, the enrichment ratio was at most 0.25.
On to NWHT, for which the enrichment ratio was at most 0.25.
Then TYQL, with 2.61; and PSHR, with at most 0.25.
Then GWIP, with at most 0.25; and SMQK, with at most 0.25.
Then EEMY, with at most 0.25; and GRCE, with at most 0.25; and KKRF, with at most 0.25.
As to DCQN, the enrichment ratio is at most 0.25.
Then VENM, with at most 0.25; and NMFT, with at most 0.25.
For the variant ISME, the enrichment ratio is at most 0.25.
